Article PMC6919601, “Identification of Plasmodium dipeptidyl aminopeptidase allosteric inhibitors by high throughput screening” (PLoS ONE, 2019)
The whole screen tested about 110,000 compounds, of which about 230 (0.21%) showed an effect of 50% or more. This is one part of the list.

Target: DPAP1 (Plasmodium falciparum, UniProt Q8IIJ9)
Assay: primary screen, percent inhibition; read by cleavage of a fluorogenic dipeptide substrate; higher = more effect of the substance
Set-up: species or system P. falciparum D10 trophozoite lysates; single well
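Also: 30 min substrate incubation versus DMSO and 10 µM JCP410 controls.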

DPAP1, sequence (Q8IIJ9 whole entry, looked up): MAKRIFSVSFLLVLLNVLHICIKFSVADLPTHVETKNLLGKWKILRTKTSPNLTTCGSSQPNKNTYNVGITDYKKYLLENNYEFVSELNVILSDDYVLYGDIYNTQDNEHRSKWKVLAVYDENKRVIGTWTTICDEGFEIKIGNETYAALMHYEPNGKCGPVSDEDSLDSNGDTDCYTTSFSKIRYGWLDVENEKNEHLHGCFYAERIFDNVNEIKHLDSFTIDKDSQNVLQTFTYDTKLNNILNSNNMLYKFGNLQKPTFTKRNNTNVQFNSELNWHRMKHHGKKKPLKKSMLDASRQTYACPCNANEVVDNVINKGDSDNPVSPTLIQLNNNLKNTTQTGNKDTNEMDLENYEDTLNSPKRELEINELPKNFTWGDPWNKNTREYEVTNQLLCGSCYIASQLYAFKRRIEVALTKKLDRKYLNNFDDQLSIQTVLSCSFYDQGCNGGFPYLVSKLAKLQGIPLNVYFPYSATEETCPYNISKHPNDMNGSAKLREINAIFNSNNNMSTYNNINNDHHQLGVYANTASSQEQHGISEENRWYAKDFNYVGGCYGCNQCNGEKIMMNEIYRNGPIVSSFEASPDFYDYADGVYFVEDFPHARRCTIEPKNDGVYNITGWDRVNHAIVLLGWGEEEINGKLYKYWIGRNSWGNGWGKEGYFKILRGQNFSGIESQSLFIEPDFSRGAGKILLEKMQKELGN

Structure (SMILES)	% Inhibition @ 10 uM [%]
O=C(NCc1ccco1)/C(=C/c1ccccc1)NC(=O)c1ccco1	20
Cc1cccc2c(CC(NC(=O)c3ccc(-c4ccccc4Cl)cc3)C(=O)NCC#N)c[nH]c12 (stereo not drawn)	-5.2
COc1ccccc1CNc1nc(SC)ncc1CO	-5.13
CCN1C(=N)N(c2nc(N(C)C)nc(N(C)C)n2)CC1=O	-4.8
COc1ccccc1NC(=O)c1ccccc1Cl	3.54
C=CCSC1=NC2(CC(c3ccccc3)c3ccc(O)c(O)c3O2)CC(C)(C)N1 (stereo not drawn)	-1.24
C=CCSc1nc2ccccc2c(=O)n1Cc1ccccc1	-10.2
CC(C)c1ccc(C(=O)Nc2ccc(NC(=O)c3cccs3)cc2)cc1	-17
COc1cccc(C2c3c(-c4ccc(F)cc4)nnc(O)c3Nc3nnnn32)c1 (stereo not drawn)	0.401
COc1cc(C(=O)N(Cc2ccc(N(C)C)cc2)C2CCS(=O)(=O)C2)cc(OC)c1OC (stereo not drawn)	3.74
COCCCn1c(=N)c(C#N)cc2c(=O)n3cc(C)ccc3nc21	0.279
CC1(C)CC(c2nc(-c3ccc(Br)cc3)cs2)CCO1 (stereo not drawn)	-0.216
O=C(c1ncc[nH]1)c1ccccc1C(=O)N1CCOCC1	2.65
COC(=O)C1C(=O)NCC1c1ccc(OC)cc1 (stereo not drawn)	-0.546
CCc1ccc(CNC(=O)CSc2nc3nncc-3c(O)n2-c2ccccc2Cl)cc1	-0.406
O=C1[C@@H]2C3CCC(O3)[C@H]2C(=O)N1CNc1ccc(Cl)c(Cl)c1	0.35
CCc1ccc(CNC(=O)C2CCN(S(=O)(=O)N3CCC4(CC3)OCCO4)CC2)cc1	6.86
CCN(CC)CCCNCc1ccc(OC)cc1OC	0.387
CN(C(=O)c1ccccc1[N+](=O)[O-])c1ccccc1	3.47
Cc1cccc(-c2c(C#N)cnc3ncnn23)c1	-4.76
COCCOC(=O)c1c(C)oc2ccc(OCC(=O)c3ccccc3)cc12	0.487
COc1cccc(-c2nn(C)c3sc(C(=O)N4CCC(C(N)=O)CC4)cc23)c1	-0.499
N#CC1=C(N)Oc2[nH]nc(-c3ccc4c(c3)OCO4)c2C1c1ccco1 (stereo not drawn)	0.674
Cc1cc(C)n(CC(=O)n2c3ccccc3c3ccccc32)n1	2.3
CCOC(=O)c1oc2ccc(CNC(C)(C)C)c(Cl)c2c1C	4.6
COc1cccc(CNc2nc3ccc(Cl)cc3nc2-n2nc(C)cc2C)c1	0.244

Structure (SMILES)	% Inhibition @ 10 uM [%]
CCOc1ccc(CCNC(=O)C2=C(C)C(=O)OC23CCN(S(=O)(=O)CC)CC3)cc1	-2.13
O=C(/C=C/c1ccccc1)NCCc1ccccc1	-4.87
CN(Cc1ccccc1)C(=O)CCc1nc(CN2CCN(C(=O)c3noc4c3CCCC4)CC2)no1	7.82
O=C(c1ccc(F)cc1)N1CCN(Cc2ccc3c(c2)OCO3)CC1	7.49
O=C(O)c1ccc(CSc2nc3n(n2)C(c2ccc(F)cc2)C2=C(O)CCCC2=N3)cc1 (stereo not drawn)	3.2
CC1CC(=O)C2=C(C1)OC(N)=C(C#N)C2c1ccsc1 (stereo not drawn)	-1.38
c1ccc(CC2NCCn3cccc32)cc1 (stereo not drawn)	-4.01
CSc1cc(C)c(OCC(=O)Nc2ccc(NC(C)=O)cc2)c(C)c1	-5.24
Cc1nnc2sc(NC(=O)CCc3ccccc3)nn12	-3.73
CC1(C)CC(NC(=O)c2ccccc2C(=O)NC2CC(C)(C)NC(C)(C)C2)CC(C)(C)N1	1.57
Cc1ccc(-c2ccc(=O)n(CCC(=O)NCc3ccc4c(c3)OCO4)n2)cc1	-3.58
CCOC(=O)c1[nH]c2ccccc2c1NC(=O)c1cccc(C(F)(F)F)c1	-0.58
CC1=C(C(N)=O)C(c2ccccc2Cl)n2nnnc2N1 (stereo not drawn)	0.0598
Cc1nnc(N2CCC(C(=O)NCc3ccc(OC(C)C)cc3)CC2)c2nn(-c3ccccc3)c(C)c12	0.58
COCCN1C(=O)/C(=C\c2ccc(C(C)C)cc2)C(C(=O)OC)=C1C	-3.06
Cc1ccc(C(=O)N/C(=C/c2ccc(Cl)cc2)c2nc3ccccc3[nH]2)cc1	-1.37
Cc1cc(C)nc(SCC(=O)NCc2ccccc2)n1	0.0719
N#CC1=C(N)OC2=C(C(=O)CCC2)C1c1ccccc1F (stereo not drawn)	-3.26
O=C(Nc1cc(Cl)cc(Cl)c1)c1ccccc1	-6.01
CCCOC(=O)c1nc2ncc(Br)cn2n1	2.65
Cc1cc(C)n2nc(S(=O)(=O)Nc3c(Cl)nc(C)c(Cl)c3C)nc2n1	4.42
COc1ccc2nc3oc(C(=O)NCc4ccc(C)o4)cc3cc2c1	-3.58
CCCC(=O)Nc1ccc2nc(SCC(=O)N3CCCC3)sc2c1	-3.63
COc1cc(/C=C2/N=C(c3cccc4ccccc34)OC2=O)cc(OC)c1OC	3.1
COc1ccc(-c2noc(CNC(=O)c3ccccc3F)n2)cc1	3.54
COC(=O)C1=CNC=C(C(=O)OC)C1c1cccc(C)c1	-2.15

Structure (SMILES)	% Inhibition @ 10 uM [%]
COc1cc(Br)cc(/C=C2/NC(=O)NC2=O)c1OC	2.17
O=C(NCc1ccccc1Cl)C(=O)Nc1cccc(Cl)c1Cl	3.44
CC(C)NS(=O)(=O)c1cnccc1N1CCN(CCO)CC1	0.0285
O=S(=O)(NCCc1nc2ccccc2n1S(=O)(=O)c1ccccc1)c1ccccc1	-5.33
N#CC1=C(N)Oc2cc(O)c(Cl)cc2C1c1cccc2ccccc12 (stereo not drawn)	6.8
Cc1ccc(C2OCC3(CO2)SC(N)=NC3=O)cc1 (stereo not drawn)	2.08
Cc1ccccc1C(=O)Nc1cccc(C#N)c1	0.408
Cn1c(=O)c2c(nc(CN3CCN(CCO)CC3)n2CCN2CCOCC2)n(C)c1=O	-6.71
CCOc1ccc(C2C(C#N)=C(N)Oc3c2c(C)nn3-c2ccccc2)cc1OCC (stereo not drawn)	4.28
O=C(NCc1cccnc1)C1CCN(S(=O)(=O)c2cccs2)CC1	-0.601
N#Cc1c2c(nc(N)c1-c1ccccc1)CCCCC2	-2.97
CCN(CC)C(=O)N1CCc2ccccc2C1CN1C(=O)c2ccccc2C1=O (stereo not drawn)	20.5
Cn1c(=O)c2c(nc(CN3CCc4ccccc4C3)n2Cc2ccccc2)n(C)c1=O	-0.499
CN(Cc1nc(-c2ccccn2)no1)S(=O)(=O)c1ccccc1	-4.54
Cc1nc2[nH]c(C(F)(F)F)nc2cc1Br	18.4
CCCCCC(=O)Nc1cc(OC)c(Cl)cc1OC	4
CCOC(=O)N1CCN(C(=O)C2c3ccccc3C(=O)N(C)C2c2cn(C)c3ccccc23)CC1 (stereo not drawn)	6.28
COc1cc(/C=C2\SC(=O)N(CC(=O)Nc3ccc(C)cc3)C2=O)cc(Cl)c1OC	1.89
COc1ccc(NC(=O)c2cc3c(C)nn(-c4ccccc4)c3s2)cc1	-0.132
CCOc1ccc(CNc2ccc(N3CCN(C(C)=O)CC3)cc2)cc1	-7.22
O=C(Cc1ccc(Br)cc1)Nc1ccc(Cl)cn1	-3.65
CCCCNC(=O)c1ccc2c(Cl)c3c(nc2c1)CCCC3	-0.646
Cc1nnc(C)n1/N=C/c1cccc(Oc2ccccc2)c1	-0.339
Cn1c2c(c(=O)n(C)c1=O)CN(Cc1ccc3c(c1)OCO3)CN2	0.66
Cc1cccc(OCC(O)Cn2c(C)nc3ccccc32)c1 (stereo not drawn)	-6.71
CCOc1ccc(C(=O)Nc2cccc3ccccc23)cc1	-4.35

Structure (SMILES)	% Inhibition @ 10 uM [%]
CCOC(=O)c1sc(NC(=O)CSc2nc(C)c(CC(C)C)[nH]2)nc1C	1.76
CCOC(=O)c1c(NC(=S)Nc2ccccc2)sc2c1CCN(CC)C2	39.5
Cc1ccc(C(=O)N2CCC(c3nc(O)c4nnn(Cc5ccccc5C)c4n3)CC2)cc1	0.347
CCCCNC(=O)CSc1nc2ccccc2c2nc3ccccc3n12	-0.801
COc1ccc(CNC(=O)c2ccnn2C(F)F)cc1OC	14
O=C(c1ccc(Br)o1)N(Cc1nc(-c2ccccc2)no1)C1CCCCC1	3.74
CC(C)C[C@H](NS(=O)(=O)c1ccc(C(C)(C)C)cc1)C(=O)NCC#N	-1.61
COC(=O)c1ccc(/C=C2\N=C(c3cccc(C)c3)OC2=O)cc1	4.54
COc1ccc(NS(=O)(=O)c2cccc(C(=O)Nc3ccccc3C(=O)O)c2)cc1	-0.0369
COc1ccc(CNC2CCCc3ccccc32)cc1 (stereo not drawn)	-2.87
CCNc1oc(-c2cccs2)nc1S(=O)(=O)c1ccc(Cl)cc1	0.245
O=C(O)C1c2ccccc2C(=O)N(C2CCCC2)C1c1cccs1 (stereo not drawn)	4.33
Cc1ccc(Nc2ncnc3sc4c(c23)CCCC4)c(C)c1	4.7
CCOC(=O)/C(C#N)=C/c1c(Oc2ccccc2)nc2c(C)cccn2c1=O	-1.43
O=C(NCCCN1CCCC1=O)c1ccc2snnc2c1	-0.0235
COc1ccc(Cl)cc1C(=O)N1CCN(c2ccccc2OC)CC1	-3.92
Cc1ccc(CCNC(=O)c2ccc3c(c2)ncn3C2CCCC2)cc1	-4.97
NS(=O)(=O)c1ccc(NC(=O)c2ccccc2Cl)cc1	1.48
O=C(Nc1nncs1)C1(c2ccccc2)CCCC1	0.9
FC(F)(F)C1CC(c2cccs2)Nc2ncnn21 (stereo not drawn)	-4.93
CC(=O)C1=C(O)C(=O)N(C)C1c1ccc(F)cc1 (stereo not drawn)	1
Cc1ccc(C#N)c(SCC(N)=O)n1	-1.93
CC(C)c1c(O)c2c(n(-c3ccccc3)c1=O)CCCC2	3.05
Cc1ccc(C(=O)Nc2cc([N+](=O)[O-])ccc2C)cc1	4.6
